Source: PubChem BioAssay AID720709 (National Center for Advancing Translational Sciences (NCATS), 2013)
About 520 (0.14%) of roughly 360,000 compounds were called active. The shares of active, inactive and inconclusive entries below differ from those in the screen. The call rests on the fitted dose curve; in most records, active means well fitted inhibition curve with a large enough effect; inconclusive means small, poorly fitted or top-dose-only effect; inactive means no such curve, though single readings can be large or run the other way. Potencies of inconclusive entries are left out as doubtful fits.

Biological target: Rap guanine nucleotide exchange factor 3 (Homo sapiens) (UniProt O95398)
Sequence of UniProt O95398 (O95398 whole entry, looked up): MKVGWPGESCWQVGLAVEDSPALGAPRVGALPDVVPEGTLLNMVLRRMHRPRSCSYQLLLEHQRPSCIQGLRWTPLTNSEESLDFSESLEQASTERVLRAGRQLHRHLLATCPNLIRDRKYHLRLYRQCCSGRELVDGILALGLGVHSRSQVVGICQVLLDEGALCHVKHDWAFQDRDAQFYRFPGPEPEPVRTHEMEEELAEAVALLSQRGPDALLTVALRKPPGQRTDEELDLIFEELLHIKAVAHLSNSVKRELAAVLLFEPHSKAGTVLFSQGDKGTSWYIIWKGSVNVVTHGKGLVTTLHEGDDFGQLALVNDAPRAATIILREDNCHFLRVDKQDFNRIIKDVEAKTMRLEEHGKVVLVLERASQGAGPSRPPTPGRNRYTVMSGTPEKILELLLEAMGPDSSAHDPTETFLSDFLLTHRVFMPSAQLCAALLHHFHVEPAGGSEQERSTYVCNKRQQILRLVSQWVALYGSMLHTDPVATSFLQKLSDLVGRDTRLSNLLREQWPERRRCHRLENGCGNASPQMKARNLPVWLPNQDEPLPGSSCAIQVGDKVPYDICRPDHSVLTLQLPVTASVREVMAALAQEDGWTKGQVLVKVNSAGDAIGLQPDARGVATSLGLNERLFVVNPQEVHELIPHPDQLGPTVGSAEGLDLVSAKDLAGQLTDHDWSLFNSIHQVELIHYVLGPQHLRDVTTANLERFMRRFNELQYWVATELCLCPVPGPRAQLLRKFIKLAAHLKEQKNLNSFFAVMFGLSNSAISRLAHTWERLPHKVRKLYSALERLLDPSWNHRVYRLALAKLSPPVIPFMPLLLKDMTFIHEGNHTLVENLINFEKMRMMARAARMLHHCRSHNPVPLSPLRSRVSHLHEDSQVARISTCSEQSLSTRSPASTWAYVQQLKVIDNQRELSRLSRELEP
Assay: qHTS for Antagonist of cAMP-regulated guanine nucleotide exchange factor 3 (EPAC1): primary screen; further: nearly all actives have a fitted effect of over 50% in size;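 on activity change, negative = inhibition: plate controls were vehicle for no effect and positive control for full effect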
Conditions: EPAC1 GEF assay, Rap1b-BODIPY-GDP exchange fluorescence; activity change, negative = inhibition: at 115 µM (top of the series)
Potency means the concentration at half of the fitted maximal effect; tags describe the fitted curve by direction and shape.

SMILES | Potency | activity change, negative = inhibition
CN(C(=O)COC(=O)c1ccc(-c2ccc(O)cc2)cc1)C1CCS(=O)(=O)C1 (configuration not stated) | inconclusive [inhibitor, partial curve] | –
COc1ccc(NC(=O)Nc2ccc3c(c2)C(=O)N([C@H](C)CO)C[C@H](C)[C@@H](CN(C)C(=O)Nc2ccccc2)O3)cc1 | inconclusive [inhibitor, full curve] | –
CC(C)(C)C1CCc2c(sc3nc(SCC(N)=O)nc(N)c23)C1 (configuration not stated) | inconclusive [inhibitor, partial curve] | –
COc1cc(NC(=O)c2cc3ccccc3o2)c(OC)cc1Cl | – | inactive: -6.75%
CC(C)CN1CCN(Cc2cc(F)ccc2-n2cccn2)CC1CCO (configuration not stated) | inconclusive [inhibitor, full curve, poor fit] | –
O=C(NCCNC(=O)c1cc(OCC(F)(F)F)ccc1OCC(F)(F)F)Nc1cccc(C(F)(F)F)c1 | inconclusive [inhibitor, partial curve] | –
COc1ccc(/[N+]([O-])=C/c2ccco2)cc1 | inconclusive [inhibitor, partial curve] | –
CCC(CO)n1c(SCc2cc([N+](=O)[O-])cc3c2OCOC3)nc2ccccc2c1=O (configuration not stated) | inconclusive [inhibitor, partial curve] | –
COc1ccc(C2c3c(noc3C)CC(C)(O)C2C(C)=O)cc1 (configuration not stated) | – | inactive: -0.212%
CCOc1ccc(S(=O)(=O)N2CCOCC2)cc1NC(=O)CSCc1ccc(C)cc1 | – | inactive: -25.2%
O=C(Nc1ccccc1)Nc1ccc(Cl)c(S(=O)(=O)N2CCOCC2)c1 | inconclusive [inhibitor, partial curve] | –
COc1ccccc1NC(=O)C1=C(C)NC(SCC(=O)Nc2ccc(C(=O)O)cc2)=C(C#N)C1c1cccs1 (configuration not stated) | inconclusive [inhibitor, single point] | –
NC(=O)[C@H](Cc1cc2ccccc2s1)NC(=O)[C@@H]1CC2(CC(c3cccc(NC(=O)[C@@H]4CCC(=O)N4)c3)=NO2)CN1C(=O)/C=C/c1c(F)cccc1Cl (some centres not stated) | inconclusive [inhibitor, partial curve] | –
Cn1c(COc2ccccc2Br)nc2ccccc21 | – | inactive: 8.1%
COCCN(C(=O)CSc1nnc(C)n1Cc1ccccc1)c1c(N)n(Cc2ccccc2)c(=O)[nH]c1=O | inconclusive [inhibitor, full curve, poor fit] | –
COc1ccc(-n2cc(-c3ccccc3)c3c(=O)[nH]cnc32)cc1 | inconclusive [inhibitor, full curve, poor fit] | –
COc1cccc(NC(=O)CN(C)C(=O)c2cc3c(s2)CCCC3)c1 | inconclusive [inhibitor, full curve, poor fit] | –
NC(=S)NNc1ccnc2cc(Cl)ccc12 | – | inactive: 3.43%
Cc1cccc(-c2noc(C3CCCCC3)n2)c1 | – | inactive: 0.521%
CCOC(=O)c1[nH]c2c(c1C)C(=O)CC(c1ccc(N(C)C)cc1)C2 (configuration not stated) | inconclusive [inhibitor, full curve, poor fit] | –
O=C(O)CSc1cc(C(=O)c2cc(F)ccc2O)cn2c(=O)c3c(-c4ccccc4)csc3nc12 | inconclusive [inhibitor, partial curve] | –

SMILES | Potency | activity change, negative = inhibition
Cc1c(Cl)cccc1NC(=O)C1CC(=O)N(C2CCCC2)C1 (configuration not stated) | inconclusive [inhibitor, single point] | –
Oc1cc(O)cc(/C=C/c2ccc(O)c(O)c2)c1 | – | inactive: -5.21%
CC1CCN(C(=S)Nc2ccc(F)cc2)CC1 | inconclusive [inhibitor, partial curve] | –
Cc1cc(Br)ccc1NC(=O)c1sc2ncnc(N3CCN(c4ccccn4)CC3)c2c1C | – | inconclusive: -9.49% [inhibitor]
COc1ccc(-c2nc(-c3cccnc3)no2)cc1 | inconclusive [inhibitor, single point] | –
Cc1ccc(N/C=C/C(=O)c2ccc(C)cc2)cc1 | – | inactive: 1.98%
COC(=O)c1cccc(CC2(C)C(=O)Nc3ccc(OC(F)(F)F)cc32)c1 (configuration not stated) | inconclusive [inhibitor, full curve] | –
O=C(c1ccc(-c2nnc(Nc3cccc(Cl)c3)c3ccccc23)cc1)N1C[C@H]2C[C@H](C1)c1cccc(=O)n1C2 | inconclusive [inhibitor, partial curve] | –
Cc1ccccc1Nc1cc2ccccc2c(=O)[nH]1 | inconclusive [inhibitor, full curve] | –
Cc1cc(Nc2cc(N3CCN(C)CC3)nc(Sc3ccc(NC(=O)C4CC4)cc3)n2)n[nH]1 | inconclusive [inhibitor, single point] | –
N#Cc1c(-c2ccc(F)cc2)cc(-c2ccccc2)nc1SCC(=O)NCC(=O)O | active: 79.4 µM | –
Cc1cc(C(=O)Nc2ccon2)c(C)o1 | active: 50.1 µM | –
COc1cccc(NC(=O)CSc2ccc(-c3ccco3)nn2)c1 | – | inactive: 5.32%
CC(=O)OC1c2ccccc2C(=O)N1Cc1ccccc1 (configuration not stated) | – | inactive: -2.38%
CCc1nnc(NC(=O)C2=CCN(S(=O)(=O)c3ccccc3)CC2)s1 | inconclusive [inhibitor, full curve, poor fit] | –
Nc1nc(Nc2cccc(F)c2)nc(N2CCOCC2)c1[N+](=O)[O-] | inconclusive [inhibitor, partial curve, poor fit] | –
CC1CCc2sc(C(=O)NC3CCCCC3)cc2C1 (configuration not stated) | – | inactive: 11.4%
O=C(NN1C(=O)/C(=C/c2ccc(O)cc2)SC1=S)c1cccc(O)c1 | inconclusive [inhibitor, full curve, poor fit] | –
O=C(CCc1ccc(O)c(O)c1)N/N=C/c1cc2c(cc1[N+](=O)[O-])OCO2 | inconclusive [inhibitor, partial curve] | –
CCOC(=O)CSc1ccc2nnc(-c3ccccc3)n2n1 | inconclusive [inhibitor, partial curve] | –
O=C(CCN1C(=O)/C(=C/c2ccc3c(c2)OCO3)SC1=S)Nc1ccc(C(=O)O)cc1 | inconclusive [inhibitor, partial curve] | –
